# Whole data set: some 2,900 compounds, median “IRF Lucia reporter activity, fold change vs agonist alone” near 0.9, cut for the highest 2% near 2.8. Some of the results follow.
# Columns and labels:
# RAW-Dual [1] = assay: IRF Lucia reporter activity, fold change vs agonist alone; cytotoxicity flag (confluency mask): not cytotoxic; higher = enhanced IRF activity
# Procedure, shortened: (§1)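 Library stock was pin-tooled at 50 nL into 384-well plates of RAW-Dual macrophages (50,000 cells/well, DMEM), followed 1 h later by a PRR agonist, and the cells were kept at 37 °C, 5% CO2. Supernatant collected after 20 hours was read for IRF by QuantiLuc luminescence and for NF-κB by QuantiBlue absorbance at 620 nm. Reporter activity is fold change over agonist-alone wells, and a well counted as cytotoxic when its IncuCyte confluency was below 70% of agonist controls in both mask sets.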
# RAW-Dual [2] = assay: IRF Lucia reporter activity, fold change vs agonist alone; higher = enhanced IRF activity; conditions: library stock concentration (final ~1000-fold dilution): 10 mM, agonist: MPLA (TLR4) […]
# Procedure, shortened: as §1
# RAW-Dual [3] = assay: IRF Lucia reporter activity, fold change vs agonist alone; cytotoxicity flag (confluency mask): cytotoxic (confluency <70% of control); higher = enhanced IRF activity
# Procedure, shortened: as §1
# [4] = agonist: 3'3'-cGAMP (STING) 10 ug/mL
# [5] = cytotoxicity flag (confluency mask): not cytotoxic
compound,measurement,setting,value
CCc1nc(-c2cccc(C)c2)c(-c2ccnc(NC(=O)c3ccccc3)c2)s1 (library stock concentration (final ~1000-fold dilution): 10 mM),IRF Lucia reporter activity,RAW-Dual [1]; [4],0.553
same,IRF Lucia reporter activity,RAW-Dual [1]; agonist: LPS (TLR4) 0.1 ug/mL,0.757
CCc1nc(-c2cccc(C)c2)c(-c2ccnc(NC(=O)c3ccccc3)c2)s1,IRF Lucia reporter activity,RAW-Dual [2]; [5],1.02
CCCCCC/C=C\CCCCCCCc1cccc(O)c1C(=O)O (library stock concentration (final ~1000-fold dilution): 10 mM),IRF Lucia reporter activity,RAW-Dual [1]; [4],0.776
same,IRF Lucia reporter activity,RAW-Dual [1]; agonist: LPS (TLR4) 0.1 ug/mL,0.673
CC1CC(=O)c2c(ccc3c2C(=O)c2cccc(O)c2C3=O)C1 (centres undefined) (library stock concentration (final ~1000-fold dilution): 10 mM),IRF Lucia reporter activity,RAW-Dual [1]; [4],0.519
same,IRF Lucia reporter activity,RAW-Dual [1]; agonist: LPS (TLR4) 0.1 ug/mL,0.878
Cn1c(=O)c2c(ncn2CC(=O)O)n(C)c1=O (library stock concentration (final ~1000-fold dilution): 10 mM),IRF Lucia reporter activity,RAW-Dual [1]; [4],1.07
same,IRF Lucia reporter activity,RAW-Dual [1]; agonist: LPS (TLR4) 0.1 ug/mL,1.25
Cn1c(=O)c2c(ncn2CC(=O)O)n(C)c1=O,IRF Lucia reporter activity,RAW-Dual [2]; [5],1.12
CS(=O)(=O)c1cccc(CNc2nc(Nc3ccc4c(c3)CCC(=O)N4)ncc2C(F)(F)F)c1 (library stock concentration (final ~1000-fold dilution): 10 mM),IRF Lucia reporter activity,RAW-Dual [1]; [4],0.0175
same,IRF Lucia reporter activity,RAW-Dual [1]; agonist: LPS (TLR4) 0.1 ug/mL,0.0202
CS(=O)(=O)c1cccc(CNc2nc(Nc3ccc4c(c3)CCC(=O)N4)ncc2C(F)(F)F)c1,IRF Lucia reporter activity,RAW-Dual [2]; [5],0.0174
CC1(C)CCC(CN2CCN(c3ccc(C(=O)NS(=O)(=O)c4ccc(NCC5CCOCC5)c([N+](=O)[O-])c4)c(Oc4cnc5[nH]ccc5c4)c3)CC2)=C(c2ccc(Cl)cc2)C1 (library stock concentration (final ~1000-fold dilution): 10 mM),IRF Lucia reporter activity,RAW-Dual [1]; [4],1.05
same,IRF Lucia reporter activity,RAW-Dual [1]; agonist: LPS (TLR4) 0.1 ug/mL,1.5
CC(C)(C)n1nc(-c2ccc(Cl)cc2)c2c(N)ncnc21,IRF Lucia reporter activity,RAW-Dual [2]; cytotoxicity flag (confluency mask): cytotoxic (confluency <70% of control),0.504
CC(C)(C)n1nc(-c2ccc(Cl)cc2)c2c(N)ncnc21 (library stock concentration (final ~1000-fold dilution): 10 mM),IRF Lucia reporter activity,RAW-Dual [3]; [4],0.961
same,IRF Lucia reporter activity,RAW-Dual [3]; agonist: LPS (TLR4) 0.1 ug/mL,0.439
Cc1nc(Nc2ncc(C(=O)Nc3cc(NC(=O)c4cccc(C(F)(F)F)c4)ccc3C)s2)cc(N2CCN(CCO)CC2)n1 (library stock concentration (final ~1000-fold dilution): 10 mM),IRF Lucia reporter activity,RAW-Dual [1]; [4],0.13
same,IRF Lucia reporter activity,RAW-Dual [1]; agonist: LPS (TLR4) 0.1 ug/mL,0.118
Cc1cc(C(=O)NNCc2ccccc2)no1 (library stock concentration (final ~1000-fold dilution): 10 mM),IRF Lucia reporter activity,RAW-Dual [1]; [4],1
same,IRF Lucia reporter activity,RAW-Dual [1]; agonist: LPS (TLR4) 0.1 ug/mL,0.873
O=c1cc(-c2ccc(O)c(O)c2)oc2cc(O)c(C3OC(CO)C(O)C(O)C3O)c(O)c12 (centres undefined) (library stock concentration (final ~1000-fold dilution): 10 mM),IRF Lucia reporter activity,RAW-Dual [1]; [4],0.978
same,IRF Lucia reporter activity,RAW-Dual [1]; agonist: LPS (TLR4) 0.1 ug/mL,1.3
